± gives the standard deviation of the averaged measurements. Restriction of a single-cycle SIVsab GFP reporter by TRIM5α v1-loop variants in CRFK cells. Human variants: read share among cells still uninfected after two challenges over input, higher = gained restriction. Rhesus variants: share among infected cells over input, higher = lost restriction. Reporter dose not given per row. No active / inactive call per row; the paper calls a change when both replicates lie above its controls (mean + 2 SD of stop or wild-type variants, or the top frameshift score). Residues outside the varied loop are taken from Swiss-Prot. The paper reads the human single-substitution scores as noise; they and the rhesus combinations repeat poorly (rank correlation 0.3 to 0.4), indel scores repeat only for the top variants, rhesus substitutions well (0.9).
System: SIVsab (simian immunodeficiency virus of sabaeus monkeys), single-cycle GFP reporter, in CRFK cells
Test: enrichment among infected cells over input (fold); higher = weaker restriction
Conditions: library: human / rhesus combinations
Procedure: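 Pools of CRFK cells expressing variants of the TRIM5α v1 loop were challenged with the single-cycle reporter, sorted by GFP and sequenced; mean of two replicates.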

Sequence	enrichment
MASGILLNVKEEVTCPICLELLTEPLSLHCGHSFCQACITANHKKSMLYKEGERSCPVCRISYQPENIQPNRHVANIVEKLREVKLSPEEGQKVDHCARHGEKLLLFCQEDSKVICWLCERSQEHRGHHTFLMEEVAQEYHVKLQTALEMLRQKQQEAEKLEADIREEKASWKIQIDYDKTNVSADFEQLREILDWEESNELQNLEKEEEDILKSLTKSETEMVQQTQYMRELISELEHRLQGSMMDLLQGVDGIIKRIENMTLKKPKTFHKNQRRVFRAPDLKGMLDMFRELTDARRYWVDVTLAPNNISHAVIAEDKRQVSSRNPQIMYQAPGTLYTFPTFTNFNYCTGVLGSQSITSGKHYWEVDVSKKSAWILGVCAGFQSDAMYNIEQNENYQPKYGYWVIGLQEGVKYSVFQDGSSHTPFAPFIVPLSVIICPDRVGVFVDYEACTVSFFNITNHGFLIYKFSQCSFSKPVFPYLNPRKCTVPMTLCSPSS [rhesus TRIM5α, 332-344 = QAPGTLYTFPTFT]	2.26 ± 1.1
MASGILLNVKEEVTCPICLELLTEPLSLHCGHSFCQACITANHKKSMLYKEGERSCPVCRISYQPENIQPNRHVANIVEKLREVKLSPEEGQKVDHCARHGEKLLLFCQEDSKVICWLCERSQEHRGHHTFLMEEVAQEYHVKLQTALEMLRQKQQEAEKLEADIREEKASWKIQIDYDKTNVSADFEQLREILDWEESNELQNLEKEEEDILKSLTKSETEMVQQTQYMRELISELEHRLQGSMMDLLQGVDGIIKRIENMTLKKPKTFHKNQRRVFRAPDLKGMLDMFRELTDARRYWVDVTLAPNNISHAVIAEDKRQVSSRNPQIMYGAPGTRYQSFTNFNYCTGVLGSQSITSGKHYWEVDVSKKSAWILGVCAGFQSDAMYNIEQNENYQPKYGYWVIGLQEGVKYSVFQDGSSHTPFAPFIVPLSVIICPDRVGVFVDYEACTVSFFNITNHGFLIYKFSQCSFSKPVFPYLNPRKCTVPMTLCSPSS [rhesus TRIM5α, 332-344 = GAPGTRYQSFT]	1.45 ± 1.5
MASGILLNVKEEVTCPICLELLTEPLSLHCGHSFCQACITANHKKSMLYKEGERSCPVCRISYQPENIQPNRHVANIVEKLREVKLSPEEGQKVDHCARHGEKLLLFCQEDSKVICWLCERSQEHRGHHTFLMEEVAQEYHVKLQTALEMLRQKQQEAEKLEADIREEKASWKIQIDYDKTNVSADFEQLREILDWEESNELQNLEKEEEDILKSLTKSETEMVQQTQYMRELISELEHRLQGSMMDLLQGVDGIIKRIENMTLKKPKTFHKNQRRVFRAPDLKGMLDMFRELTDARRYWVDVTLAPNNISHAVIAEDKRQVSSRNPQIMYQARGTLFTFQTLVNFNYCTGVLGSQSITSGKHYWEVDVSKKSAWILGVCAGFQSDAMYNIEQNENYQPKYGYWVIGLQEGVKYSVFQDGSSHTPFAPFIVPLSVIICPDRVGVFVDYEACTVSFFNITNHGFLIYKFSQCSFSKPVFPYLNPRKCTVPMTLCSPSS [rhesus TRIM5α, 332-344 = QARGTLFTFQTLV]	1.17 ± 0.54
MASGILLNVKEEVTCPICLELLTEPLSLHCGHSFCQACITANHKKSMLYKEGERSCPVCRISYQPENIQPNRHVANIVEKLREVKLSPEEGQKVDHCARHGEKLLLFCQEDSKVICWLCERSQEHRGHHTFLMEEVAQEYHVKLQTALEMLRQKQQEAEKLEADIREEKASWKIQIDYDKTNVSADFEQLREILDWEESNELQNLEKEEEDILKSLTKSETEMVQQTQYMRELISELEHRLQGSMMDLLQGVDGIIKRIENMTLKKPKTFHKNQRRVFRAPDLKGMLDMFRELTDARRYWVDVTLAPNNISHAVIAEDKRQVSSRNPQIMYQAPGTRFTFQTFVNFNYCTGVLGSQSITSGKHYWEVDVSKKSAWILGVCAGFQSDAMYNIEQNENYQPKYGYWVIGLQEGVKYSVFQDGSSHTPFAPFIVPLSVIICPDRVGVFVDYEACTVSFFNITNHGFLIYKFSQCSFSKPVFPYLNPRKCTVPMTLCSPSS [rhesus TRIM5α, 332-344 = QAPGTRFTFQTFV]	1.43 ± 0.44
MASGILLNVKEEVTCPICLELLTEPLSLHCGHSFCQACITANHKKSMLYKEGERSCPVCRISYQPENIQPNRHVANIVEKLREVKLSPEEGQKVDHCARHGEKLLLFCQEDSKVICWLCERSQEHRGHHTFLMEEVAQEYHVKLQTALEMLRQKQQEAEKLEADIREEKASWKIQIDYDKTNVSADFEQLREILDWEESNELQNLEKEEEDILKSLTKSETEMVQQTQYMRELISELEHRLQGSMMDLLQGVDGIIKRIENMTLKKPKTFHKNQRRVFRAPDLKGMLDMFRELTDARRYWVDVTLAPNNISHAVIAEDKRQVSSRNPQIMYGAPGTRFTFPSLVNFNYCTGVLGSQSITSGKHYWEVDVSKKSAWILGVCAGFQSDAMYNIEQNENYQPKYGYWVIGLQEGVKYSVFQDGSSHTPFAPFIVPLSVIICPDRVGVFVDYEACTVSFFNITNHGFLIYKFSQCSFSKPVFPYLNPRKCTVPMTLCSPSS [rhesus TRIM5α, 332-344 = GAPGTRFTFPSLV]	1.31 ± 0.1
MASGILLNVKEEVTCPICLELLTEPLSLHCGHSFCQACITANHKKSMLYKEGERSCPVCRISYQPENIQPNRHVANIVEKLREVKLSPEEGQKVDHCARHGEKLLLFCQEDSKVICWLCERSQEHRGHHTFLMEEVAQEYHVKLQTALEMLRQKQQEAEKLEADIREEKASWKIQIDYDKTNVSADFEQLREILDWEESNELQNLEKEEEDILKSLTKSETEMVQQTQYMRELISELEHRLQGSMMDLLQGVDGIIKRIENMTLKKPKTFHKNQRRVFRAPDLKGMLDMFRELTDARRYWVDVTLAPNNISHAVIAEDKRQVSSRNPQIMYGARGTRFTFPSFTNFNYCTGVLGSQSITSGKHYWEVDVSKKSAWILGVCAGFQSDAMYNIEQNENYQPKYGYWVIGLQEGVKYSVFQDGSSHTPFAPFIVPLSVIICPDRVGVFVDYEACTVSFFNITNHGFLIYKFSQCSFSKPVFPYLNPRKCTVPMTLCSPSS [rhesus TRIM5α, 332-344 = GARGTRFTFPSFT]	1.22 ± 0.1
MASGILLNVKEEVTCPICLELLTEPLSLHCGHSFCQACITANHKKSMLYKEGERSCPVCRISYQPENIQPNRHVANIVEKLREVKLSPEEGQKVDHCARHGEKLLLFCQEDSKVICWLCERSQEHRGHHTFLMEEVAQEYHVKLQTALEMLRQKQQEAEKLEADIREEKASWKIQIDYDKTNVSADFEQLREILDWEESNELQNLEKEEEDILKSLTKSETEMVQQTQYMRELISELEHRLQGSMMDLLQGVDGIIKRIENMTLKKPKTFHKNQRRVFRAPDLKGMLDMFRELTDARRYWVDVTLAPNNISHAVIAEDKRQVSSRNPQIMYGARGTLYTFPSLVNFNYCTGVLGSQSITSGKHYWEVDVSKKSAWILGVCAGFQSDAMYNIEQNENYQPKYGYWVIGLQEGVKYSVFQDGSSHTPFAPFIVPLSVIICPDRVGVFVDYEACTVSFFNITNHGFLIYKFSQCSFSKPVFPYLNPRKCTVPMTLCSPSS [rhesus TRIM5α, 332-344 = GARGTLYTFPSLV]	3.02 ± 3.1
MASGILLNVKEEVTCPICLELLTEPLSLHCGHSFCQACITANHKKSMLYKEGERSCPVCRISYQPENIQPNRHVANIVEKLREVKLSPEEGQKVDHCARHGEKLLLFCQEDSKVICWLCERSQEHRGHHTFLMEEVAQEYHVKLQTALEMLRQKQQEAEKLEADIREEKASWKIQIDYDKTNVSADFEQLREILDWEESNELQNLEKEEEDILKSLTKSETEMVQQTQYMRELISELEHRLQGSMMDLLQGVDGIIKRIENMTLKKPKTFHKNQRRVFRAPDLKGMLDMFRELTDARRYWVDVTLAPNNISHAVIAEDKRQVSSRNPQIMYQARGTRFTFPSFTNFNYCTGVLGSQSITSGKHYWEVDVSKKSAWILGVCAGFQSDAMYNIEQNENYQPKYGYWVIGLQEGVKYSVFQDGSSHTPFAPFIVPLSVIICPDRVGVFVDYEACTVSFFNITNHGFLIYKFSQCSFSKPVFPYLNPRKCTVPMTLCSPSS [rhesus TRIM5α, 332-344 = QARGTRFTFPSFT]	1.27 ± 0.65

— the supplement of paper PMC12230231
